Experimental data as given in the supplement of paper PMC3334620.
In all, about 33,000 sequences were measured (“E-score (-0.5 to 0.5)”: median about -0.056, highest 2% from about 0.38 on). Some of the results follow.

Each sequence was assayed against Stb4 (UniProt P50104) (assay: PBM E-score (8-mer binding enrichment) (E-score (-0.5 to 0.5)); higher = stronger / more preferred TF binding; most listed sequences are background and not binding sites). Details: protein concentration: 200 nM; construct: GST-DNA-binding domain.
Method in brief: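 The E-score, a modified Wilcoxon-Mann-Whitney statistic, was computed by the Universal PBM Analysis Suite for every ungapped eight-base word pooled with its reverse complement. Scans behind it were normalised with masliner after bound GST-tagged yeast transcription factors were detected with fluorescent anti-GST. The proteins, at about 100-200 nM, had been applied to universal all-10-mer Agilent arrays made double-stranded by primer extension.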

| Sequence | PBM E-score |
| --- | --- |
| AACCGTAT | -0.0324 |
| ATTCCTCG | 0.2 |
| CCTAAGGA | -0.0356 |
| AGGCGACT | -0.0702 |
| CCCTATGC | -0.0929 |
| ACTTCGGA | 0.458 |
| AGAAAGCG | -0.106 |
| GAGCCCGA | 0.156 |
| ACCGCAGT | 0.00862 |
| ACCGACCC | 0.191 |
| AAAAGGAC | -0.0912 |
| AACCACTG | -0.0289 |
| CCGAACCA | 0.356 |
| TCGGAGCA | 0.373 |
| AAATGCCG | 0.36 |
| CCCTCTAC | -0.308 |
| AATGATTC | -0.113 |
| AGCCCGCA | -0.162 |
| ACCTGAGA | -0.222 |
| CAAACGGC | 0.0298 |
| AAGCTGAC | -0.102 |
| CCGGCATC | 0.28 |
| CCTGTGAC | -0.315 |
| ATTGAAGG | -0.166 |
| AGCGTAGC | -0.156 |

| Sequence | PBM E-score |
| --- | --- |
| GAGATTGC | 0.063 |
| CTCCGCCC | 0.166 |
| CCTTCGTC | -0.109 |
| GCAGAGTA | -0.0468 |
| AATAGCGG | 0.0554 |
| GAGTATTA | -0.0893 |
| CACTCCTC | -0.158 |
| AGCTCCGG | 0.301 |
| CTACGACC | -0.232 |
| CCGGTCTA | -0.00194 |
| AACCATTA | -0.0195 |
| AGGAGCTC | -0.0923 |
| AGACCATC | -0.15 |
| GAGGATGA | -0.136 |
| CAGGTCTA | 0.00049 |
| CACGAGCG | -0.199 |
| GGACCCAC | 0.0405 |
| GACAAAGA | -0.0537 |
| GGCACAAA | 0.104 |
| CAGTGTAA | -0.0547 |
| AAGCGGCC | 0.0516 |
| CGGCCTGA | 0.0862 |
| CCGTACCG | 0.304 |
| ATTTAGAA | 0.00443 |
| CTGGTCAA | -0.155 |

| Sequence | PBM E-score |
| --- | --- |
| CTAGACCA | -0.274 |
| ACGGAAGA | 0.349 |
| ATATTATA | -0.15 |
| ATACACCG | 0.23 |
| CGCGAAAA | 0.0356 |
| CCTAATCG | -0.0192 |
| CTTTTGAA | -0.00939 |
| CTTGGAGA | -0.109 |
| AAGTCTCA | -0.152 |
| AACGCATC | 0.0383 |
| CTAATGAA | 0.0956 |
| AAAGATAG | -0.105 |
| AGTTAAGC | 0.0954 |
| ACTAACAC | -0.0543 |
| AGTCTCGA | -0.0187 |
| CTTCTCCC | 0.0168 |
| GTCCAGCA | -0.237 |
| CTGATACC | -0.104 |
| CGGCGCTC | 0.156 |
| TCGCGTAA | 0.0292 |
| AGAAATCG | 0.0992 |
| GACTCATA | -0.0793 |
| ATAATACG | 0.144 |
| ACATACTG | -0.0636 |
| CACTCACG | -0.022 |

| Sequence | PBM E-score |
| --- | --- |
| CAGGCCCG | 0.172 |
| AACGGAAA | 0.393 |
| CGGTGCTC | 0.116 |
| TCCGTAGA | 0.147 |
| TAAACCTA | -0.00181 |
| CAGGCTTA | -0.107 |
| CTGGGTAC | -0.105 |
| AGTGGAAC | -0.0398 |
| AGGTCACT | -0.249 |
| ACGGTAGG | -0.0326 |
| AGCGAACC | -0.00121 |
| CGACCCCA | 0.00659 |
| CTCAACCA | -0.0445 |
| ACGGTTGG | 0.065 |
| ACTAGGCT | -0.317 |
| CACGCACC | 0.00779 |
| ACCAGTAC | -0.193 |
| CTGTCTGC | -0.144 |
| CCTTCTAG | -0.301 |
| AGGCTAGA | -0.297 |
| ATTCGCTA | -0.197 |
| AAACCGTA | 0.0401 |
| AATCATCC | 0.149 |
| CATACGGC | 0.0817 |
| GATATAGA | 0.193 |

| Sequence | PBM E-score |
| --- | --- |
| AGGGCGCC | -0.105 |
| CTCATCAA | -0.0454 |
| ATGATCTA | -0.115 |
| CGATAGCA | -0.00415 |
| AATGAACG | -0.231 |
| AATACGAG | -0.0662 |
| AACCATCC | 0.251 |
| AACCTACC | 0.179 |
| CAGGCTCC | 0.0435 |
| AACAAAAT | -0.114 |
| AGCTAGGG | -0.009 |
| ACTCTCGA | -0.214 |
| CAGCCCAC | -0.139 |
| GCGGGGCC | 0.146 |
| ACAGTCCG | 0.0488 |
| ACCCTATG | -0.213 |
| CGTATTAA | -0.105 |
| TATAAAGA | -0.203 |
| CCCGGCCC | 0.316 |
| ACTAAGTC | -0.0624 |
| ACTATCGC | -0.192 |
| AAAGCTGT | -0.123 |
| GCCAATAA | 0.0672 |
| CTTCTTAC | 0.0471 |
| GCATGGCC | -0.0486 |

| Sequence | PBM E-score |
| --- | --- |
| GCCTTCCC | -0.00928 |
| TCGTACGA | -0.199 |
| AACCACGG | 0.185 |
| ATATAATC | -0.0537 |
| CCCAGCGG | -0.0104 |
| ATTGGGCC | -0.03 |
| CGGCATTA | 0.344 |
| AGGAGGAC | -0.214 |
| CCGCTCTA | 0.0787 |
| CTGGGGGA | -0.109 |
| CAATGGGG | -0.172 |
| CGAACACC | 0.189 |
| CATAGTTC | -0.0247 |
| GGTTTTGA | -0.0405 |
| GGTTCAGA | 0.014 |
| AGTGCGAT | -0.188 |
| TCTGCCCA | -0.116 |
| CCGATACC | 0.306 |
| TCCAGAGA | -0.207 |
| TCAATAAA | -0.142 |
| CTTTTGGA | -0.0724 |
| AGAGGACC | 0.0474 |
| CCCTCACA | -0.203 |
| ACCATCTC | 0.059 |
| AACCTTGG | -0.142 |

| Sequence | PBM E-score |
| --- | --- |
| CGCATTAA | -0.0129 |
| CCTCCTGC | -0.248 |
| CTGGACAA | -0.246 |
| CAACCCAG | -0.117 |
| ACCACCGA | 0.18 |
| CGACAAAA | 0.2 |
| CCCACCGC | 0.0372 |
| GACCTCAA | -0.211 |
| CAGCGAAG | -0.147 |
| ATCTCCTG | -0.0504 |
| GCGGCGCC | 0.0629 |
| GCACGCCA | -0.0537 |
| ATTGTTCG | 0.197 |
| CAACCGAG | 0.361 |
| GCTCGAAA | -0.0196 |
| TCTCTAAA | -0.0651 |
| ATTCAGGA | 0.0181 |
| ATAGAGGC | -0.256 |
| CCATATGA | -0.213 |
| GCATGGTA | 0.0539 |
| AAAGAACT | -0.0941 |
| CTTCACGA | -0.196 |
